# ± gives the standard deviation of the averaged measurements. This is one part of the list.
# System: PfAP2-EXP AP2 domain (GST-tagged)
# Assay: gcPBM binding intensity (ln(normalized median fluorescence intensity)); higher = stronger DNA binding
# Method in brief: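 Alexa488 anti-GST antibody, scanned at 488 nm, detected GST-tagged P. falciparum DNA-binding domains that had been expressed in E. coli and incubated for 1 h on an Agilent 4 × 180k array. The array carried primer-extended double-stranded 36-bp intergenic genomic probes and negative controls. Binding intensity is the highest Masliner-normalised natural-log median intensity across replicate spots of either orientation of each probe.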
row,Sequence,gcPBM binding intensity (ln)
1,TTGTGGATTTTGTGCGCACACACATGCAAAAAGAAA [CACACA_site1147],9.29 ± 0.28
2,CACAGACATATATATACACACTTTTATTTAAATAAC [CACACA_site4962],8.72 ± 0.46
3,TTTTTGTATCCTTCTTCTTTTTCCAGACTACATTAT [XGTACX_negctrl_site216],9.11 ± 0.52
4,AAAAAAAAAATGTGCACACGCGTACACCCAAAAAAA [CACACA_site5149],8.72 ± 0.28
5,TATAAAAATAATATTACACACATGTAAAATGGCTGT [CACACA_site5755],8.38 ± 0.34
6,ATATATGCATATTATACACACATATGTATATACATT [CACACA_site965],8.84 ± 0.46
7,AAACTGTCGCTCATAAAGAAGAATGAAATACATTAA [TGCATGCA_negctrl_site60],8.37 ± 0.4
8,ACCCATGATTGTTACAGTACTCTACTTTCTAATATA [XGTACX_site98],8.96 ± 0.46
9,TGGAGGTCAGTTCACAGTACCCAGGAAATCTACGGA [XGTACX_site1995],8.61 ± 0.5
10,AAAAAAAAAAAAAATGCACACAATGGCTAGCTGTAC [CACACA_site2273],8.595 ± 0.078
11,TTTTCTGTATATTGTGTGCACACAATTAACAAAAAA [GTGCAC_site9817],8.7 ± 0.16
12,ATATTGACAAATATTACACACATATATAAATATGTA [CACACA_site7835],8.22 ± 0.47
13,CCATAGATATTTTATACACACATATAACATATTAAT [CACACA_site6312],8.55 ± 0.52
14,ATATAATATTACACAAGTACAAAAATTAATACTAAA [XGTACX_site482],8.39 ± 0.32
15,ATTTATTTTAATATATGTACATATATTTTTTTATTA [XGTACX_site3389],8.55 ± 0.26
16,ATTTGAAATGCATGAACACACACAGCTATAAATGCA [CACACA_site8229],8.71 ± 0.3
17,CGTTATTATCCACATACACACAGGAATAAAAAATTA [CACACA_site2883],8.7 ± 0.61
18,TAGTAATATATATTTTGTACATAAAATAATATATAA [XGTACX_site7971],8.35 ± 0.35
19,TATATATGTTAAAACGTGCACATATATATATATATA [GTGCAC_site9589],10.2 ± 0.21
20,ATAAAATATAAAAAAAGTACAAAAAAAAAAAAAAAA [XGTACX_site6657],8.1 ± 0.51
21,AAAAAAAAATACATATGTACATATACATATATATAT [XGTACX_site2975],9.55 ± 0.2
22,ATATTATATAAATATACACACATTGTTTTATAGCAT [CACACA_site2386],8.51 ± 0.42
23,ATATATTTAATTTATGGTACACATAATTTTTTTAGA [XGTACX_site848],8.38 ± 0.33

row,Sequence,gcPBM binding intensity (ln)
1,TATATATATATATATACACACATATATATAAATATA [CACACA_site2035],10.2 ± 0.26
2,TTAAAAAAAAGACACACACACATACACATATTTATA [CACACA_site7535],8.7 ± 0.47
3,CACAAAAGTAAGCACGCACACACAACCTGAAATAAA [CACACA_site166],8.7 ± 0.45
4,AAAAGAAAATAAGAAACACACAAAAATATGTAAAAA [CACACA_site7694],8.62 ± 0.44
5,ATTTTTATATAATGAACACACATATTATATCATTTA [CACACA_site1572],8.35 ± 0.41
6,TTAGTCATATATATATGTACACACATATATATATTT [XGTACX_site2948],8.35 ± 0.26
7,GAACATACTCAAATAGCACACACATAAATAAAAATG [CACACA_site9283],8.89 ± 0.56
8,AAAATCCACATTTTAGTACACACTTAAAAAATTATT [CACACA_site2955],8.38 ± 0.19
9,TATATATATATAATATGTACATATAATCAACATTTT [XGTACX_site3915],9.68 ± 0.27
10,TTATATATATATATATGTACGAAAAAGAAAAAAAAG [XGTACX_site6761],8.78 ± 0.56
11,AAATGAGTATTCATATGTACACAAATAAAAAATTAA [XGTACX_site2968],8.61 ± 0.28
12,ATGGAAGGAAACAATAAAAAAAAAAAAAAATATATA [XGTACX_negctrl_site594],8.53 ± 0.45
13,AATGACAACCTTGTCACACATATATATATATATATA [CACACA_site5977],10.2 ± 0.4
14,TTTTTTATTTGACAAGCACACACTTAAATATATATA [CACACA_site3358],8.52 ± 0.38
15,CATTTAAAGGACAAGCTGCACTTACAAAATAAAAAA,8.54 ± 0.3
16,ATCTTTGGAAATTTATGTACTTATATTTATATTGTA [XGTACX_site6606],8.54 ± 0.26
17,ATTTCTAGTTTAAGATGTACTTTAATAAAAATTATT [XGTACX_site4820],8.45 ± 0.33
18,AAATATCAACAAAAATGTACAAATGTAAAAGAATAT [XGTACX_site4676],8.88 ± 0.4
19,TTTTTTTTTTAATAAAGTACATATAAATTACCTAAT [XGTACX_site4434],8.06 ± 0.31
20,ACTATACAGTTATACACACACATATATATATAATAT [CACACA_site310],8.86 ± 0.31
21,AGGTTAAAAATAAATACACACATTTTATGTCTGTAT [CACACA_site996],8.23 ± 0.45
22,TATATATATATTGAAGTGCAAAATACTGTACGTAAT,9.56 ± 0.2
23,AAAAGAATATAAAGATACATTGTGATATGGGACAAA [CACACA_negctrl_site405],8.81 ± 0.47

row,Sequence,gcPBM binding intensity (ln)
1,GAAATAATTTCATATACACACATATACATACATACA [CACACA_site1358],8.94 ± 0.21
2,TATATATATATAAACAGTACACAAATTGTAAATAAA [XGTACX_site8268],9.68 ± 0.071
3,TTAATTCTACTTATTACACACATATTAATCAAAAAT [CACACA_site1478],8.46 ± 0.43
4,TATATATATATATATATTGAAATTTATAATAATATT [TGCATGCA_negctrl_site407],10 ± 0.36
5,ATTTTTTTATGTACACAAAAAAAAAAAAAAATTTAA [CACACA_negctrl_site1028],8.57 ± 0.34
6,AAATATTTATACTATACACACCCAATTTAAAAAAAA [CACACA_site6669],8.69 ± 0.35
7,AACATAGAAACGTTATGTACATATTGAAGGATATTA [XGTACX_site6015],8.94 ± 0.38
8,ATATTATAATTAAAACGTACGTATTTATGAATTCAT [XGTACX_site1047],8.84 ± 0.4
9,TATTAATTAAACCATACACACATAATTTTTTTATAA [CACACA_site843],8.21 ± 0.43
10,TACATAAATTAAAACACACACACACTAAAAAAAAAA [CACACA_site7130],8.64 ± 0.36
11,GTTAATATTTACTACACACACTTAAAATATGTATAT [CACACA_site4194],8.63 ± 0.34
12,TTTTCATTTTTCTTTACACACATATATTTATTTATA [CACACA_site7119],8.94 ± 0.4
13,AAGGTATTTATAACTACACACTTATTTATAACCTAA [CACACA_site6194],8.22 ± 0.38
14,TATACCAATGAATGAGTGCAAAGAAGATAAGGAAAA,9.16 ± 0.34
15,ACTTATTGTGGTTTTGCATGTAGCATTTTTACATAC [TGCATGCA_site247],9.26 ± 0.36
16,AATAAAATGAAATGAAATAAAAAAAAAAAAAAAATG [TGCATGCA_negctrl_site305],8.28 ± 0.63
17,AAAAAAAAAAAAAAATTAAAGTAATGGAAAAAAAAA [CACACA_negctrl_site1666],8.3 ± 0.61
18,TATATTATAAACATATGTACATATGTATAAATACAT [XGTACX_site722],8.56 ± 0.3
19,AACATATATATATACACACACATATATATATGAAAT [CACACA_site279],8.68 ± 0.35
20,ATTATTAATATTATATGTACGCACTATATCAAGGCT [XGTACX_site6468],8.68 ± 0.29
21,ACGATGCATTAATCTGCACACCACAACAAAACGTTT [CACACA_site899],8.85 ± 0.25
22,AATCATTTTATTATCCTAACAAAAAAAAAATATATT [CACACA_negctrl_site115],8.04 ± 0.45
23,ACAACGCGTTAAATGTGTACATATTTATAAGTATAT [XGTACX_site8777],8.71 ± 0.42

row,Sequence,gcPBM binding intensity (ln)
1,AGCTATGTATTCTACACACACATACAGACATATATA [CACACA_site3428],8.72 ± 0.38
2,TTTGCATTTCTTAATTGTACTTAAAAAAAAAATAAT [XGTACX_site758],8.28 ± 0.38
3,TACACGCTAAAATACACACACACACCCACATATATA [CACACA_site4153],8.57 ± 0.49
4,TTCCCTCCTCAAAATTGTACTAGAATAATAACATAA [XGTACX_site8765],8.5 ± 0.51
5,TTTTTTAAACATATTATGTGTATTACATAGTTATGC [XGTACX_negctrl_site596],8.15 ± 0.26
6,TTATTATATTAAAATTGTACTTGCTTTCAATATGAT [XGTACX_site5305],8.23 ± 0.35
7,TTATAATATTATAAAATAACATTTATTAATTATTGG [CACACA_negctrl_site1794],8.34 ± 0.55
8,TAAACGTTATATAGTGCATGTCATATTTTATTATAT [TGCATGCA_site935],8.68 ± 0.26
9,TTCCAAAAAATTATTACACACATATGGGCACATATA [CACACA_site679],8.38 ± 0.32
10,TATACATACATACATACACACACACCGATATATACA [CACACA_site8184],8.78 ± 0.42
11,AATGTTATTTGTTTATCACACATTAGGATGTTTATA [CACACA_site5710],8.46 ± 0.27
12,TATAAAATTAAACAAAGTACTAGACATATATATAGA [XGTACX_site3247],8.77 ± 0.39
13,ATTCTATAATATAAGAGTACTTATTTTTTTTAATTT [XGTACX_site7671],8.28 ± 0.26
14,TGCCTATTTTGGATGTGTACACATATATATATTTAT [XGTACX_site6741],8.88 ± 0.42
15,ACAAAAAAACATGAAACACACACAAATATATATATA [CACACA_site8566],9.68 ± 0.27
16,TGTTTCTGCTCTGGACATTTTTAAAAAAGGGAAAGC [CACACA_negctrl_site1463],8.75 ± 0.41
17,ACGCTAATTATGTGCACACAAATTAAAGGTCTACAA [CACACA_site147],8.95 ± 0.25
18,AAAAAAAAAAAAAACACACACACAAGAGTATATAAA [CACACA_site6580],8.5 ± 0.62
19,TTATATATTTTTTTTTGTACATAGAAGAGGGAAAAA [XGTACX_site2178],8.66 ± 0.27
20,ATGAATTTATTACATTGTACATTTTTAAAAGGTTAC [XGTACX_site124],8.45 ± 0.42
